Data as given in PubChem BioAssay AID504332 (National Center for Advancing Translational Sciences (NCATS), 2011).
Among all 350,000 compounds or so, about 31,000 (8.9%) were called active. Inconclusive results, whose numbers are uncertain, are shown with a selection of clear calls. Calls follow the shape of the dose curve; as a rule, active = well fitted inhibition curve with a large enough effect; inconclusive = small, poorly fitted or top-dose-only effect; inactive = no such curve, though single readings can be large or run the other way. Potencies of inconclusive entries are doubtful fits and often do not repeat.

Target: Histone-lysine N-methyltransferase EHMT2 (Homo sapiens) (UniProt Q96KQ7)
Chain of UniProt Q96KQ7 (Q96KQ7 whole entry, looked up): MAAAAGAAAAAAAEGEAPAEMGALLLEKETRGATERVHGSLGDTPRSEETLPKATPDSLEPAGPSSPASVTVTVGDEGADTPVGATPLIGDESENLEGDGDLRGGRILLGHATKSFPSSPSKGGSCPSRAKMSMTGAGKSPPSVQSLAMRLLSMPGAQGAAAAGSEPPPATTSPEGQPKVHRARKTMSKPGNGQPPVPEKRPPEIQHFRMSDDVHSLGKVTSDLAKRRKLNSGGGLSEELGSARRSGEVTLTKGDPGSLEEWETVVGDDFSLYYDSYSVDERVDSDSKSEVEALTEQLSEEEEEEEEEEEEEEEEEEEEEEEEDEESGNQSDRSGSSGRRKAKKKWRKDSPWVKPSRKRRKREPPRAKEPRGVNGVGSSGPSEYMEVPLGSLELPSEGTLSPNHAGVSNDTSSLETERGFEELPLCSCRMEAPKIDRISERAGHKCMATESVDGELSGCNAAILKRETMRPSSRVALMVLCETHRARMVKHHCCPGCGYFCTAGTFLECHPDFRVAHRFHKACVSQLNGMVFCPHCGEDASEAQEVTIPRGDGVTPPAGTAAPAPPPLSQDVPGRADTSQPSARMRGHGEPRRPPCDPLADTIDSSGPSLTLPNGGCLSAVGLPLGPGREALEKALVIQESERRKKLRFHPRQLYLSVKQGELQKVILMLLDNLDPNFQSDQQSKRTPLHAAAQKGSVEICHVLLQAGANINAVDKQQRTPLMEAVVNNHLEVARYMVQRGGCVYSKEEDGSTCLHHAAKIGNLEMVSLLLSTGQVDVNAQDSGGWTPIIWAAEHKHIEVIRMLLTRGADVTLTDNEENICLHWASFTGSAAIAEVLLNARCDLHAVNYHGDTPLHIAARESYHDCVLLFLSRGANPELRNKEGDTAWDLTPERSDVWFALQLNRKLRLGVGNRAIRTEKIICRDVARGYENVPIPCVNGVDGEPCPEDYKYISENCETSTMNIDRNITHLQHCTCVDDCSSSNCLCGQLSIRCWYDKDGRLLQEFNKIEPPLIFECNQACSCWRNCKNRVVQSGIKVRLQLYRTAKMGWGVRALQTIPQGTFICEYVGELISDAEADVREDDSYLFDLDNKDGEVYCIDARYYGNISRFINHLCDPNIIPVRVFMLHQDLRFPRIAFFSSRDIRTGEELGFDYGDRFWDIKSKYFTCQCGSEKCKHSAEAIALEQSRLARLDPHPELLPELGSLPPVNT
Experiment: qHTS Assay for Inhibitors of Histone Lysine Methyltransferase G9a; also: nearly all actives have a fitted effect of over 75% in size
Details: G9a H3K9 monomethylation, AlphaScreen, 2 h; activity, negative = inhibition: at 59 µM (top of the series) unless noted
Outline: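 Enzyme 20 nM + cpd, 15 min RT; add b-H3K9 pep 500 nM / SAM 20 uM; 2 h RT; anti-H3K9me1 Ab 0.5 ug/mL + SA donor / anti-rabbit acceptor beads 20 ug/mL each, 10 min; AlphaScreen read.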
% is scaled to controls: 0 for no effect and ±100 for the full control effect; potency is read from the fitted curve at half-maximal effect; tags tell the direction and shape of the fitted curve.

Row | SMILES | Potency | activity, negative = inhibition
1 | Cc1ccc(NC(=O)C2CCN(S(=O)(=O)c3c(C)nn(C)c3C)CC2)c(Cl)c1 | inactive | –
2 | CS(=O)(=O)N(CC(=O)N/N=C/c1ccccn1)c1ccc(Oc2ccccc2)cc1 | inconclusive: 22.4 µM [inhibitor, partial curve] | –
3 | CC(OC(=O)CCN=C1NS(=O)(=O)c2ccccc21)C(=O)Nc1ccc(F)c(F)c1F (centres undefined) | inconclusive: 56.2 µM [inhibitor, partial curve, poor fit] | –
4 | COc1ccc(C(=O)NCCCOC(=O)c2ccc(OC)cc2)cc1 | inactive | –
5 | O=C(COC(=O)C1=COCCO1)Nc1ncc(Cl)cc1Cl | inconclusive: 89.1 µM [inhibitor, partial curve, poor fit] | –
6 | O=C(CCSCCC(=O)NCc1ccccc1)NCc1ccccc1 | – | inactive: -6.78% [at 12.7 µM]
7 | COc1ccccc1N1CCN(C(=O)C2=CC=CN3CCS(=O)(=O)N=C23)CC1 | inconclusive: 5.62 µM [inhibitor, single point] | –
8 | Cc1ccc(-c2cc(C(=O)OCC(=O)c3ccccc3)c3cccc(Cl)c3n2)cc1 | inactive | –
9 | COc1ccc(Br)c(C(=O)Nc2cc3c(cc2N2CCCC2)n(C)c(=O)c(=O)n3C)c1 | inconclusive: 11.2 µM [inhibitor, partial curve] | –
10 | CCn1c(=O)cc(SCC(=O)Nc2cccc(SC)c2)c2ccccc21 | inconclusive: 14.1 µM [inhibitor, partial curve, poor fit] | –
11 | COCCN(C(=O)CC1C(=O)NCCN1Cc1ccc(-c2ccccc2)cc1)C(C)C (centres undefined) | active: 50.1 µM | –
12 | Cc1c(NC2=C(Cl)C(=O)N(c3ccccc3Cl)C2=O)c(=O)n(-c2ccccc2)n1C | active: 39.8 µM | –
13 | O=[N+]([O-])c1ccc2sc(SCc3nc4ccccn4c3Br)nc2c1 | inconclusive: 15.8 µM [inhibitor, single point] | –
14 | CC(=O)CCc1oc2ccc(C)cc2c1-c1ccccc1 | inactive | –
15 | Cc1ccc(S(=O)(=O)N/N=C/c2c(F)cccc2Cl)cc1 | inconclusive: 2.51 µM [inhibitor, full curve, poor fit] | –
16 | O=C(OCc1ccco1)c1ccc2c(c1)N(Cc1cccc(F)c1)C(=O)c1ccccc1S2 | inactive | –
17 | COc1ccc(/C=C2\SC(=S)N(CCCC(=O)N3CCN(C)CC3)C2=O)cc1 | inconclusive: 89.1 µM [inhibitor, single point] | –
18 | COc1ccc(CNC(=O)CC2N=C3c4ccccc4N=C(SCC(=O)Nc4ccc(N(C)C)cc4)N3C2=O)cc1 (centres undefined) | inconclusive: 7.94 µM [inhibitor, full curve] | –
19 | Cc1cccc(N2C(S)=C(C#N)C(=O)NC2c2cccs2)c1 (centres undefined) | active: 39.8 µM | –
